# Results: publication PMC4336329 (PLoS ONE, 2015)
# Hit rate of the full screen: of about 310,000 compounds, about 2,200 (0.71%) showed an effect of 50% or more. The effect is printed as a negative number. The list shows a part of the results.
# Target: human ether-à-go-go-related gene (hERG) potassium channel (human, UniProt Q12809)
# Test: primary screen, population patch clamp on CHO cells stably expressing hERG
# human ether-à-go-go-related gene (hERG) potassium channel, sequence (Q12809 whole entry, looked up): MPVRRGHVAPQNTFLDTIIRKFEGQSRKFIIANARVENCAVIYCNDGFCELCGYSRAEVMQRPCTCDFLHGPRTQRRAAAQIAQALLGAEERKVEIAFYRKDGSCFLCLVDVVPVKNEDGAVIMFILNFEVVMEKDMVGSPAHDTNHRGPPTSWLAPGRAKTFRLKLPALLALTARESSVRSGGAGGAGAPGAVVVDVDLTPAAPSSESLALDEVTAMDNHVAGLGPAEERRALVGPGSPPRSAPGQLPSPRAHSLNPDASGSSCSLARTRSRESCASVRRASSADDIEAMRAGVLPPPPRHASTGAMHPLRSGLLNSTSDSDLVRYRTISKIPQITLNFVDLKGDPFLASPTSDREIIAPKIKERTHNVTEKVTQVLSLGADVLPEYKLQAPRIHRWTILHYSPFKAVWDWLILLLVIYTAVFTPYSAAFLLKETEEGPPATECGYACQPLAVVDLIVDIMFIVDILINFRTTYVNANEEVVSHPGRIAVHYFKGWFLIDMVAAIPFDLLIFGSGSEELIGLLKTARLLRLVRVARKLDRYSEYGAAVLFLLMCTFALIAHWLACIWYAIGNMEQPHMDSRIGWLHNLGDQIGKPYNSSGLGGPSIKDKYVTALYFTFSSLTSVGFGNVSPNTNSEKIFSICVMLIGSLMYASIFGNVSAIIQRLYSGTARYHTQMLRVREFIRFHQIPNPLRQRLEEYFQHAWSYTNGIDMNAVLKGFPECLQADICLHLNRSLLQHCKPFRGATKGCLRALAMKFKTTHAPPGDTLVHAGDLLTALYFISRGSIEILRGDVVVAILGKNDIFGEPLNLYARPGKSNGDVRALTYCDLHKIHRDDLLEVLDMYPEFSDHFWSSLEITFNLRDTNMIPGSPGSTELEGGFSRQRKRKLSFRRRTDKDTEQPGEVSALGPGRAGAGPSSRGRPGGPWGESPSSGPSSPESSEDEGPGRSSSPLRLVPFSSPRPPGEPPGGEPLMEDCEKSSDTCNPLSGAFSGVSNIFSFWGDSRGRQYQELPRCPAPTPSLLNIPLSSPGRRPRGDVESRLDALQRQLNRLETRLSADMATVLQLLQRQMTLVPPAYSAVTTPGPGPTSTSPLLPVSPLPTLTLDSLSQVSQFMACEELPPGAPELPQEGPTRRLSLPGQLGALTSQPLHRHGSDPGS
row,Compound,"hERG current change (%, negative = inhibition) at 1uM [%]"
1,O=C(CSc1ccccn1)Nc1cccc(NC(=O)CSc2ccccn2)n1,-1.96
2,Cl.N#CCCNCC1(c2ccccc2)CCCC1,14
3,COc1cc(NC(=O)c2sc(C)nc2C)c(OC)cc1NC(=O)c1ccccc1,7.62
4,Cc1ccc(S(=O)(=O)N2CCc3ccccc3C2CC(=O)O)cc1 (stereo not shown),0.723
5,CC(C)c1ccc(C(=O)NNC(=O)C2CC=CCC2C(=O)O)cc1 (stereo not shown),10.8
6,Cc1cccc(OC(=O)c2cccnc2)c1,9.63
7,C#CCNc1c(C)c(C)nc2ncnn12,8.1
8,FC(F)Sc1ccc(Nc2ncnc3nc[nH]c23)cc1,0.122
9,COCC(C)n1c(SCC(=O)Nc2sccc2C(N)=O)nc2ccccc2c1=O (stereo not shown),4.61
10,O=c1[nH]c(CN2CCN(c3ccc(F)cc3)CC2)nc2ccccc12,5.63
11,O=C1CC(C(=O)Nc2ccccc2)S/C(=N\N=C\c2ccco2)N1 (stereo not shown),-1.56
12,CNC(=S)N1CCC(NC(=O)C23CC4CC(CC(C4)C2)C3)CC1,7.36
13,COc1ccc(NC(=O)c2c(NC(=O)CCC(=O)O)sc(-c3ccccc3)c2C)cc1,10
14,O=C(Nc1nc(-c2ccccc2)cs1)c1ccc2c(c1)S(=O)(=O)c1ccccc1C2=O,21.4
15,CC(C)CC(=O)c1c[nH]c(C(=O)O)c1,13.5
16,COc1ccc(CCNC(=O)CSc2ncn[nH]2)cc1,-7.86
17,Cn1c(=O)c(C(=O)NCCCc2ccccc2)c(O)c2ccccc21,11
18,O=C(NCc1cccs1)C1CCCN1C(=O)Nc1cccc(F)c1 (stereo not shown),8.78
19,COCCNC(=O)C(C)Oc1ccccc1 (stereo not shown),4.2
20,CC(=O)NCCC(=O)Nc1ccc(C)c(F)c1,8.93

row,Compound,"hERG current change (%, negative = inhibition) at 1uM [%]"
1,CC1=CC(=O)C2=C(C)CC[C@@H]3[C@H](OC(=O)[C@H]3C)[C@@H]12,8.08
2,Cc1c(NC(=S)N/N=C/C=C/c2ccccc2)c(=O)n(-c2ccccc2)n1C,8.56
3,COc1ccccc1N(/N=C1\Sc2ccccc2C1=O)C(C)=O,3.78
4,Cc1ccc(S(=O)(=O)N/N=C/c2ccc3nccnc3c2)cc1,14.7
5,COc1ccc(Cl)cc1NC(=S)N(CCN1CCOCC1)C1CCN(C(C)=O)CC1,11.1
6,CN(Cc1cccs1)C(=O)c1ccc(S(=O)(=O)N2CCCCC2)cc1,5.49
7,CCc1cc(CNC(=O)c2cc(COc3ccc(C)nc3)on2)on1,13.2
8,CCOc1ccc2oc(C(=O)N3CCN(Cc4ccccc4)CC3)c(C)c2c1,11.9
9,COc1ccccc1N1C(=O)c2ccccc2NC1C(OC)OC (stereo not shown),16.2
10,CNC(=O)c1ccc(NC(=O)C2CCN(c3ncnc4sc(C)c(C)c34)CC2)cc1,11.2
11,CC(=O)c1cccc(NC(=O)Cn2c(=O)oc3cc(S(=O)(=O)N4CCCC4)ccc32)c1,3.4
12,COC/C=C/C1=CC2=CC(=O)C(C)(OC(=O)c3cnc4ccccc4n3)C(=O)C2=CO1 (stereo not shown),17.6
13,O=C(NC1CC2CCCC(C1)N2C(=S)Nc1ccccc1)C1CC1 (stereo not shown),12.6
14,Cn1c(SCC(=O)Nc2ccccc2F)nnc1-c1cc2ccccc2o1,-7.25
15,Cn1ccnc1SCC(=O)c1ccc2ccccc2c1,5.87
16,N#CC1=C(N)N2C(=C(C#N)C13CCCC3)Nc1ccccc12,11.5
17,COC(=O)c1ccccc1NC(=O)Oc1ccc(F)cc1,0.577
18,O=C(O)/C=C/c1ccc(OCc2cccc(F)c2)cc1,18.4
19,Cc1ccc(-n2c(C)cc(C(=O)CSc3nnnn3C)c2C)cc1,1.85
20,Cc1ccc(CNS(=O)(=O)c2cc3c(cc2C)NC(=O)CO3)cc1,-9.05

row,Compound,"hERG current change (%, negative = inhibition) at 1uM [%]"
1,CCCCN(C(=O)CCC(=O)Nc1cc(C)on1)C(C(=O)NC1CCCC1)c1ccccc1OCC (stereo not shown),1.81
2,CCN(C(=O)COc1cc(=O)n(C)c2ccccc12)c1cccc(Cl)c1,-2.55
3,N#Cc1ccc[n+](CC(=O)c2ccc(NC(=O)c3ccccc3)cc2)c1.[Br-],0.763
4,CCOc1ccc(Br)cc1/C=N/O,8.41
5,Cc1nc(-c2cc(C#N)c(Sc3ccc(Cl)cc3Cl)nc2C)cs1,9.11
6,CC(=O)c1c(OC(=O)c2cccc(Cl)c2)c2ccccc2n1C,10.2
7,Cc1ccc(C)c2[nH]c(=O)c(CN(Cc3cccs3)C(=S)NCc3ccco3)cc12,10.9
8,COc1ccc(C(=O)NCc2ccc(S(N)(=O)=O)cc2)cc1[N+](=O)[O-],13.9
9,COc1ccccc1-c1ccc(=O)n(CC(=O)NC(C)(C)C)n1,13.8
10,COc1ccc(C(=S)NCS(=O)(=O)c2ccc(C)cc2)cc1,7.73
11,COc1ccc(OC)c(NC(=O)Nc2cc(C(=O)O)ccc2C)c1,9.9
12,CCO[C@H]1OC(C(=O)NCc2nc3ccccc3[nH]2)=C[C@@H](C)[C@@H]1CCCO,10.7
13,O=C(CSCc1cnn(-c2ccccc2)c1-n1cccc1)NCc1cccnc1,0.0399
14,CS(=O)(=O)N(CC(=O)N1CCCCCC1)c1ccccc1,4.57
15,CCOC(=O)C1CCN(CCC(=O)Nc2ccc(C)c(C)c2)CC1,-7.31
16,CN(CC(=O)Nc1ccccc1Br)C(=O)CCSc1ccc(F)cc1,8.65
17,O=C(NCCNC(=O)c1cc(F)cc(F)c1)c1cc(F)cc(F)c1,9.74
18,COc1ccc(NCc2nnc(SCC(=O)c3ccc(C)cc3)o2)cc1,7.48
